Where a name gives a salt, the structure may show the parent alone. ± gives the standard deviation of the averaged measurements. Some of the results follow.
Columns and labels:
[1] = tested on: murine small intestinal organoids (ENR+CD Paneth differentiation); assay: cellular ATP (CellTiter-Glo 3D) relative to plate median (log10 fold change); higher = more viable cells; settings: 6 d
[2] = tested on: murine small intestinal organoids (ENR+CD Paneth differentiation); assay: carbachol-stimulated secreted lysozyme activity relative to plate median (log10 fold change); higher = more Paneth cell lysozyme secretion; settings: 6 d, carbachol 10 µM
[3] = tested on: murine small intestinal organoids (ENR+CD Paneth differentiation); assay: basal (non-stimulated) secreted lysozyme activity relative to plate median (log10 fold change); higher = more Paneth cell lysozyme secretion; settings: 6 d
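For basal (non-stimulated) secreted lysozyme activity relative to plate median in this document: ISC-enriched organoid precursors grown as 2.5D pseudo-monolayer on Matrigel, compound given on day 0 and day 3, plate values LOESS-normalized before median fold change, three murine donors.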
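For cellular ATP (CellTiter-Glo 3D) relative to plate median in this document: 2.5D pseudo-monolayer culture of ISC-enriched organoids partly embedded atop Matrigel, compound added on day 0 and again on day 3, per-plate LOESS correction before median fold change.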

Structure (SMILES) | cellular ATP (log10) ([1]; 0.08 µM) | cellular ATP (log10) ([1]; 0.4 µM) | cellular ATP (log10) ([1]; 2 µM) | cellular ATP (log10) ([1]; 10 µM) | carbachol-stimulated secreted lysozyme activity (log10) ([2]; 0.08 µM) | carbachol-stimulated secreted lysozyme activity (log10) ([2]; 0.4 µM) | carbachol-stimulated secreted lysozyme activity (log10) ([2]; 2 µM) | carbachol-stimulated secreted lysozyme activity (log10) ([2]; 10 µM) | basal (log10) ([3]; 0.08 µM) | basal (log10) ([3]; 0.4 µM) | basal (log10) ([3]; 2 µM) | basal (log10) ([3]; 10 µM)
C[S+]([O-])c1ccc(-c2nc(-c3ccc(F)cc3)c(-c3ccncc3)[nH]2)cc1 (stereo not drawn) | -0.0491 ± 0.25 | 0.061 ± 0.14 | 0.145 ± 0.13 | 0.33 ± 0.19 | -0.0457 ± 0.062 | 0.00562 ± 0.085 | 0.0505 ± 0.093 | 0.0563 ± 0.17 | 0.0252 ± 0.12 | 0.0911 ± 0.1 | 0.064 ± 0.015 | 0.0197 ± 0.066
C[C@@H]1CCN(C(=O)CC#N)C[C@@H]1N(C)c1ncnc2[nH]ccc12 | 0.154 ± 0.05 | 0.274 ± 0.13 | 0.082 ± 0.14 | 0.0915 ± 0.33 | -0.024 ± 0.11 | 0.064 ± 0.013 | 0.105 ± 0.082 | 0.0198 ± 0.032 | -0.0147 ± 0.064 | 0.043 ± 0.021 | 0.025 ± 0.015 | 0.0454 ± 0.067
O=C(c1ccc(F)cc1)N1CCCC(c2nc(-c3ccc(F)cc3)no2)C1 (stereo not drawn) | 0.115 ± 0.2 | -0.0341 ± 0.1 | -0.21 ± 0.15 | -0.0395 ± 0.14 | 0.1 ± 0.083 | 0.19 ± 0.15 | -0.0441 ± 0.19 | -0.122 ± 0.12 | 0.269 ± 0.12 | 0.0525 ± 0.041 | -0.0328 ± 0.12 | -0.0357 ± 0.12
CC(C)C[C@H](NC(=O)CNC(=O)c1cc(Cl)ccc1Cl)B(O)O | -1.65 ± 0.56 | -1.1 ± 0.88 | -1.23 ± 0.55 | -1.76 ± 0.71 | -0.4771 ± 0.003 | -0.44 ± 0.03 | -0.424 ± 0.037 | -0.448 ± 0.0082 | -0.271 ± 0.096 | -0.284 ± 0.097 | -0.249 ± 0.081 | -0.298 ± 0.075
COc1ccnc2[nH]cc(C(=O)C(=O)N3CCN(C(=O)c4ccccc4)C[C@H]3C)c12 | 0.233 ± 0.11 | 0.102 ± 0.1 | -0.289 ± 0.31 | -1.15 ± 0.72 | 0.173 ± 0.023 | 0.007 ± 0.16 | -0.167 ± 0.0055 | -0.38 ± 0.074 | 0.141 ± 0.066 | -0.00702 ± 0.15 | -0.0999 ± 0.065 | -0.227 ± 0.078
C[C@H](NCc1ccc(OCc2cccc(F)c2)cc1)C(N)=O [Safinamide Mesylate] | 0.355 ± 0.17 | 0.26 ± 0.18 | 0.282 ± 0.2 | 0.289 ± 0.27 | 0.284 ± 0.31 | 0.125 ± 0.091 | 0.182 ± 0.2 | 0.0972 ± 0.13 | 0.125 ± 0.11 | 0.0896 ± 0.022 | 0.286 ± 0.14 | 0.104 ± 0.037
N#CC(=C(/N)Sc1ccccc1N)/C(C#N)=C(\N)Sc1ccccc1N | -0.618 ± 0.98 | -0.452 ± 0.69 | -0.439 ± 0.71 | -0.533 ± 0.82 | -0.000683 ± 0.35 | -0.0237 ± 0.15 | -0.0822 ± 0.14 | 0.0293 ± 0.28 | 0.0139 ± 0.18 | 0.00714 ± 0.12 | -0.0361 ± 0.092 | -0.00844 ± 0.18
Cc1ccc(S(=O)(=O)c2ccc([N+](=O)[O-])o2)cc1 | -0.0516 ± 0.32 | -0.014 ± 0.09 | -0.101 ± 0.023 | -0.782 ± 0.78 | 0.0913 ± 0.25 | 0.173 ± 0.21 | -0.145 ± 0.058 | -0.271 ± 0.34 | 0.0906 ± 0.16 | 0.0506 ± 0.069 | -0.104 ± 0.089 | -0.154 ± 0.15
CC(C)[C@H](O)C(=O)N[C@@H](C)C(=O)N[C@@H]1C(=O)N(C)CCc2ccccc21 | -0.0244 ± 0.35 | -0.202 ± 0.14 | -0.00979 ± 0.31 | -0.678 ± 0.85 | -0.106 ± 0.2 | -0.0992 ± 0.15 | -0.112 ± 0.011 | -0.0827 ± 0.08 | -0.0426 ± 0.084 | -0.0257 ± 0.067 | -0.0787 ± 0.049 | -0.0551 ± 0.086
